The % Inhibition is the drop in the measured response relative to a control, in per cent.

About 540 (0.36%) of roughly 150,000 compounds showed an effect of 50% or more. The list shows a part of the results.

This assay deals with Plasmodium falciparum. As to the kind of experiment: Primary screen in NF54 nanoGlo assay, in single point, at 2uM, 72h; a lower Z score goes with more inhibition. The format is functional, Erythrocyte. Conditions: timepoint 72 hour.
With `CS(=O)(=O)N1CCO[C@@H](CNC(=O)Nc2ccc3[nH]ncc3c2)C1`, the “% Inhibition” value was found to be 2% and the Z score is -0.32.
Regarding `CC(C)N(C[C@H](C)O)C(=O)CC1CCC(C(F)(F)F)CC1` (some centres undefined), the “% Inhibition” value is reported as -4% and the Z score is reported as 0.69.
In the case of `COc1ccc(CC(=O)Nc2cc(C)no2)cc1C`, the “% Inhibition” value worked out at 5% and the Z score is recorded as -0.82.
Turning to `CN(Cc1ccccc1)C1(CNC(=O)[C@H]2CCCOC2)CCC1`, the “% Inhibition” value is -10% and the Z score amounted to 1.73.
With `O=c1c2cc(F)c(F)cc2ncn1C[C@@H](O)CC1CCCC1`, the “% Inhibition” value is listed as 37% and the Z score was -0.84.
For `COc1ccc(OC)c(NC(=O)CN2CCc3[nH]c4c(C)ccc(C)c4c(=O)c3C2)c1`, in that order: 8% and -0.96.
For the compound `CN(CC[C@H](O)C(F)(F)F)Cc1ccccc1`, the “% Inhibition” value stood at 33% and the Z score is -4.3.
Take `CNC(=O)C(C)(C)CNc1nc(C)cc(OC)n1`: the “% Inhibition” value is 9% and the Z score was -1.02.
For `CNS(=O)(=O)CC(=O)N(CC(C)C)[C@@H](C)c1ccccc1C`, the “% Inhibition” value came to 0% and the Z score worked out at 0.01.
As for `O=C(CCNc1cnc2ccccc2n1)N1CCOCC1`, the “% Inhibition” value stood at 3% and the Z score is reported as -0.46.
Regarding `Cc1noc(C2CN(C(=O)[C@H]3CC(=O)N(c4cccc(Br)c4)C3)C2)n1`, the “% Inhibition” value is listed as -14% and the Z score is recorded as 2.58.
For `Cc1nccc(NC(=O)N2CCC(C)(O)CC2)c1Br`, in that order: -10% and 0.92.
For `CN(C)C[C@]1(CO)CCCN(C(=O)c2cccc3c2CCC3=O)C1`, the “% Inhibition” value was -12% and the Z score came out at 1.23.
The corresponding values for `CCc1ccc(CN2C(=O)c3c(C(=O)OC)ncn3C[C@@]2(C)C(=O)NC2CCCCCC2)cc1` are 38% and -5.49.
In the case of `CNc1nc(N2CCCn3nc(CCC(=O)O)cc3C2)nc2c1CCC2`, the “% Inhibition” value is reported as -14% and the Z score came to 2.81.
On to `N#CC1(C#N)C(c2ccccc2)CC(O)(C(F)(F)F)C(C(=O)C(F)(F)F)C1c1ccccc1` (centres undefined), for which the “% Inhibition” value was determined as 34% and the Z score is reported as -3.85.
Take `Cc1cc2c(cc1C)CN(c1cccc(C(=O)NC[C@@H]3C[C@H](F)CN3)c1)C2`: the “% Inhibition” value was -5% and the Z score is listed as 1.08.
Take `O=C(COc1ccccc1)Nc1cnc(N2CCCC2)nc1`: the “% Inhibition” value is reported as -16% and the Z score was found to be 2.94.
The corresponding values for `Cc1ccc(NC(=O)Cn2nc3ccc(C(=O)NCc4ccccc4)cn3c2=O)cc1F` are -22% and 1.91.
As to `Cc1noc(C)c1CO[C@H]1COCC[C@@H]1NC(=O)c1cccc(N(C)C)c1`, the “% Inhibition” value was found to be 2% and the Z score is -0.34.
The corresponding values for `Cn1cc(C(=O)NC[C@H]2CCc3ccccc32)c(=O)c2cnn(C)c21` are -6% and 0.78.
In the case of `Cc1noc(Cc2ccc(NCc3nnc4n3CCCC4)cc2)n1`, the “% Inhibition” value is recorded as -2% and the Z score was 0.29.
In the case of `COCC(=O)N(Cc1cc(-c2ccc(C)c(C)c2)on1)CC(C)C`, the “% Inhibition” value is -14% and the Z score stood at 1.62.
Consider `COc1cccc([C@H]2CCN(C(=O)N[C@H]3CC[C@H](O)CC3)C2)c1OC`, for which the “% Inhibition” value was found to be 11% and the Z score is recorded as -0.99.
The corresponding values for `CCc1nnc(NC(=O)c2sc3ncccc3c2N)s1` are -1% and 0.15.
Take `C=C(C)Cn1ccc(-c2cccc(-c3nc(C)cnc3C)c2)n1`: the “% Inhibition” value is listed as -2% and the Z score is reported as 0.27.
Take `CN1CCC(N(CCc2ccccc2)C(=O)c2cncc(Cl)c2)CC1`: the “% Inhibition” value is reported as -11% and the Z score is 1.41.
`CNS(=O)(=O)c1cccc(NC(=O)N2CCN(c3oc(C4CC4)nc3C#N)CC2)c1`: the “% Inhibition” value turned out to be 6% and the Z score is given as -0.91.
For `Cc1ccc(C(=O)NC2(C)CCC2)cc1OCCCN`, in that order: 6% and -1.13.
The corresponding values for `COc1cccc(CN2CC3(CCN(C(=O)c4ccncc4)CC3)CC2=O)c1` are -5% and 0.48.
Consider `Cc1c(-c2ccc(C(=O)NC3CCC3)cc2)cnn1C(F)F`, for which the “% Inhibition” value is 0% and the Z score came out at 0.02.
Regarding `CC1CCCC(C)N1C(=O)Cn1nccc1C(N)=O` (centres undefined), the “% Inhibition” value is -11% and the Z score turned out to be 1.1.
For the compound `CC1(C)CN(C(=O)c2c(O)cnc3c(F)cccc23)C1C1CCCO1` (centres undefined), the “% Inhibition” value is -4% and the Z score was found to be 0.64.
As for `CCC[C@H]1CN(c2nc(N(C)C)nc3c2CCCC3)C[C@@H]1NS(C)(=O)=O`, the “% Inhibition” value was -1% and the Z score was found to be 0.17.
In the case of `CCO[C@H]1COCC[C@@H]1NC(=O)c1ccn2nnnc2c1`, the “% Inhibition” value stood at 6% and the Z score is recorded as -1.1.
Take `Cn1nc(CC(=O)NS(=O)(=O)C2C[C@@H]3CC[C@H]2C3)c2ccccc21` (some centres undefined): the “% Inhibition” value was 6% and the Z score is on record as -0.85.
As for `Cc1cc(C(=O)N[C@@H](C)c2nc(-c3cccnc3)cs2)cc(O)n1`, the “% Inhibition” value came out at 51% and the Z score is reported as -3.53.
With `Cc1cc(C(F)(F)F)n(C[C@@H](C)CNC(=O)CN2C(=O)CNC2=O)n1`, the “% Inhibition” value is listed as -2% and the Z score turned out to be 0.46.
The corresponding values for `CN1C(=O)N[C@]2(CCN(C(=O)c3cnn4ccccc34)C2)C1=O` are -6% and 0.95.
The corresponding values for `C[C@H]1Cc2[nH]ncc2CN(c2ncnc3c(F)cccc23)C1` are 12% and -1.71.
`CCc1nc[nH]c1C(=O)N1CCN(C(=O)c2cccc(OC)c2)CC1`: the “% Inhibition” value is recorded as -2% and the Z score was determined as 0.32.
Take `O=C(NCc1ccncc1)c1ccc(NC(=O)c2ccoc2)cc1`: the “% Inhibition” value is recorded as 28% and the Z score was -3.22.

The values are drawn from ChEMBL document CHEMBL4888484, “Replenishing the malaria drug discovery pipeline: Screening and hit evaluation of the MMV Hit Generation Library 1 (HGL1) against asexual blood stage Plasmodium falciparum ,using a nano luciferase reporter read-out” (2022).
